From the supplement of paper PMC3334620
Whole data set: some 33,000 sequences, median “E-score (-0.5 to 0.5)” near -0.043, cut for the highest 2% near 0.37. The list shows a part of the results.

What follows are sequences tested against T1, Upc2 (UniProt Q12151) (assay: PBM E-score (8-mer binding enrichment) (E-score (-0.5 to 0.5)); higher = stronger / more preferred TF binding; most listed sequences are background and not binding sites). Conditions: protein concentration: 200 nM; construct: GST-full length.
T1 sequence: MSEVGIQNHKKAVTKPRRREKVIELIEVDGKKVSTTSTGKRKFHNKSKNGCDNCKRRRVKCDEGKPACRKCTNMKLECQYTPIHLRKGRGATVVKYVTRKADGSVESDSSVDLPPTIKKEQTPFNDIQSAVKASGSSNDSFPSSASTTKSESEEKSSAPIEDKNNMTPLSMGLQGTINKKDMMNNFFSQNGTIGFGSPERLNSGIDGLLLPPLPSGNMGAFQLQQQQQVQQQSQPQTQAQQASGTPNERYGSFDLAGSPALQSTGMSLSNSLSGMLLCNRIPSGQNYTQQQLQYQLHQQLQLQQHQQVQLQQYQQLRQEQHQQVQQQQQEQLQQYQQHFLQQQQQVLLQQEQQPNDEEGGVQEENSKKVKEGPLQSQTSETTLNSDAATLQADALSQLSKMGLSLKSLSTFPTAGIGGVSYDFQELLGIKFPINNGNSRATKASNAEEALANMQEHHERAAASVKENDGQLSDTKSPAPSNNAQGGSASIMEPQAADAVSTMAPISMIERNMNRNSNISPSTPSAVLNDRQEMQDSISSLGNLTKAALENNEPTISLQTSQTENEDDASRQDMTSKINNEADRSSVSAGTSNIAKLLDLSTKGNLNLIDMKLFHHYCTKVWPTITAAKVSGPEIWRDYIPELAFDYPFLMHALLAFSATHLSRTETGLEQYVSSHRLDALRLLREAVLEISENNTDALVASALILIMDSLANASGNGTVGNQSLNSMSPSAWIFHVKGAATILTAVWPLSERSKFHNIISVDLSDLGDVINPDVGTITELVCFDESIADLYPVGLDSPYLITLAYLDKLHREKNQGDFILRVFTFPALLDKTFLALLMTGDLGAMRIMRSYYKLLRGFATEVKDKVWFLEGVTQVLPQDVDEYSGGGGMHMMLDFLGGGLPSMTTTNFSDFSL
Method: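 Universal 'all 10-mer' protein binding microarrays (Agilent AMADID 015681) probed with GST-tagged S. cerevisiae TFs (full-length or DBD) made by in vitro transcription/translation (PURExpress), about 100-200 nM. Bound TF was detected with fluorescent anti-GST. Each ungapped 8-mer (which stands for itself and its reverse complement) is scored by the PBM enrichment score (E-score), a modified Wilcoxon-Mann-Whitney statistic from -0.5 to +0.5, computed with the Universal PBM Analysis Suite. Scale: above 0.35 generally sequence-specific binding.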

Sequence	PBM E-score
AACAATAC	0.185
AAATCCGC	-0.119
CGGCACAA	-0.0958
AGATGTTC	-0.217
ACAATTCG	0.167
GACCCACA	0.0499
ATACGAAA	0.47
CCGCCCGA	-0.183
AGACCCTA	-0.224
CAAGCCAC	-0.159
AAGTCTTC	-0.115
AAATACGC	0.212
ATTCAGCG	0.127
CGCTGCAC	-0.0173
GCCGTAAC	0.225
CTGTTAAA	0.0743
AAATCGAG	-0.011
ACCAGGGG	-0.228
ACTAATAC	0.148
CCATGTAC	0.0673
CGGCCTTC	0.00408
GGTTTGTA	-0.0874
ATGCAACA	-0.0324
CACAGTCG	0.147
AACCAGGG	-0.0946

Sequence	PBM E-score
TATATCCA	0.00119
GTAGGAAA	-0.114
GCTCCGTA	0.349
ATATATAC	0.265
AGCTCCCG	-0.113
CATTCAAA	-0.0367
AAAGCTGG	-0.155
GTGTCAAC	-0.202
AGAATTTG	-0.00145
GCCTCAGA	0.0169
CAACCCCG	-0.179
CGAACTCC	0.0746
AACCCAGC	-0.148
GCCTATAA	0.0593
GCGGACAC	-0.0631
TACCGATA	0.226
AGGGTTGG	-0.115
CAATTTTA	0.119
AATTGTCT	-0.00489
AAGATGCT	0.109
GCGACAGC	0.079
AAGAATGA	-0.114
CCCGTCCG	-0.269
CCAATCCA	-0.225
ACTCCAGC	-0.0569

Sequence	PBM E-score
ACCGTCAT	-0.18
ACCACTAG	-0.172
CCTCGACG	-0.194
CGGCCCAG	-0.0171
CAGGGGTA	-0.167
CGCTAGCG	0.0519
AACCTTGT	-0.16
TCTTCCCA	-0.357
CAAGCACG	0.0717
AACCCCAT	-0.187
GACTCCCC	-0.156
GCGGCGTA	0.227
AACCCCAC	-0.0684
ACGCGAAG	0.154
AAACACGG	0.0544
AGAGGGGG	-0.0797
ACATGGCA	-0.00764
ACATTGTG	-0.243
CAACCCGA	0.198
AAACTACC	-0.0984
ATTAATTA	-0.0314
AGGAGTGA	-0.156
ACGTGGCC	0.0339
CGTTTCGA	0.21
CGAGGCAG	0.152

Sequence	PBM E-score
ATTTCAAC	-0.0478
TCATGCGA	0.129
AAGTTGGG	-0.158
TACCTCTA	-0.0863
CTCCGAGA	-0.112
ACGACGGA	0.37
CAGGGAGA	-0.19
GGAAACTA	-0.177
ATTTCGCG	0.124
AACTCTGC	-0.237
GTTCATTA	0.111
GTTTAGAA	0.313
CAGTCTTA	0.0205
GGCCCGCC	-0.126
GAAAATAA	0.0199
CATTGCTC	-0.0125
ACCAGGTG	-0.172
GAGACCCA	-0.151
AACTAAGC	0.0896
GAAAACTC	-0.114
ATTCGTTC	0.428
ATCTGAGC	0.0686
CTGAGATC	-0.189
AGAAGGAC	-0.223
AGAAGGTA	-0.0265

Sequence	PBM E-score
AGTTGAGC	-0.0376
CTGGCGAA	-0.174
CCACAGGG	-0.144
AAGTCGAG	-0.135
AAAATGCT	-0.0957
ATCAGTGA	-0.182
GGAGTTAA	-0.163
CGATGTCC	0.17
CGTGGTCC	-0.104
CCTATGAC	-0.0458
CACTGTAA	0.0592
CTGACACA	-0.319
ATGTTCAG	-0.193
ATAAGAAG	0.197
ACAAGAGT	-0.0633
GAGGGGGC	-0.169
ATACGCCC	0.279
CATTACTA	0.00651
AGGTTCTA	-0.0689
ATCCACGA	-0.0435
CAAGCAGC	-0.143
ACGGTCTA	0.174
ACGTATTG	0.209
GCACGGAC	-0.0287
TGCTTACA	-0.0544

Sequence	PBM E-score
CGCGTCTA	0.0391
AGCAACAG	-0.145
GCTCCGGA	0.0904
AGGATCGG	-0.00417
AGACCCGC	0.0249
GATCAGCA	-0.0232
TAAATCAA	0.132
AGACCCCA	-0.148
ACCGGAGG	-0.186
ATGAGACG	-0.0739
TGAGCCCA	-0.0483
ACAGAGGA	-0.0314
ACGGATCG	0.272
CATATTGG	0.0165
CGATAGAA	0.157
CTTGGCGC	-0.163
GAAATCAA	-0.0817
CAGTTCGC	0.0573
AATAAAGC	0.0828
AAATAGTC	-0.0335
GAGAAGGC	-0.224
CGAGGTGA	0.211
CACTCCCC	-0.0586
CCATGGGG	-0.157
GGAATCTA	-0.146

Sequence	PBM E-score
CACTCTGG	-0.0839
AGCCAATA	-0.0864
CACCACCC	-0.124
CAACCGCA	0.0318
ATGATCTC	-0.0337
CGTACTTA	0.338
AACTTGGG	-0.165
GACCGCCA	-0.0136
CGTGAGTA	-0.0705
AAGCTCGC	0.2
ATACATCC	0.0355
CAATTTCC	-0.0487
GATGCAGC	-0.035
CAACTAGG	-0.207
AGCGCTGG	-0.204
AGGCCGAT	-0.153
AACTTCCA	-0.142
AATCCATT	-0.0406
CGGGAGCA	-0.0972
CACTTTGC	-0.063
GGTGCAGA	-0.299
ATGAACCC	-0.0888
TATGTCCA	0.0103
GCAGCAAC	-0.0138
AAGCTAAC	0.0658

Sequence	PBM E-score
ATATTGAG	-0.0874
CTCCCTGA	-0.274
CACCAAAG	0.0387
CTACCTGA	-0.149
CCGTCTTC	-0.263
AATTGCCT	0.00346
AGACCCAT	-0.186
ACGGAGAA	0.113
GATAGCTA	-0.185
CGACTGAC	0.137
GTACCAGA	0.179
CAAATATC	0.0216
CCCGTACA	0.398
ACGCTTCT	-0.0666
GAGCTGGA	-0.0714
GCCAACAC	0.0264
GTGCAGTA	-0.157
CAATCTTC	-0.00081
ATCTCGTG	0.124
ATTCCCCC	-0.428
TGGTTTAA	0.00261
CACGCCCC	-0.167
ATACGCAG	0.352
ATCACTCC	-0.0907
GTTTGCAA	0.17

Sequence	PBM E-score
AGGTTGTC	-0.191
CGACGCTC	0.292
ATATTTTC	0.0135
ACGCTGTC	0.078
AAGGCCTC	0.0301
ACTCAAGA	0.0377
CTGCACAC	-0.304
CTGGGCCC	-0.229
CTACGAGC	0.393
CCTAGTCG	0.0241
AGATAGCG	-0.151
AACGACCG	0.403
AGTAAATA	0.0984
ATCTCTGC	-0.143
ATGGCTTG	-0.0935
ATTTACTG	-0.109
AACCTGTG	-0.0467
AATTGGGA	-0.0326
TAACGCTA	0.144
